Consider 42 sequences from article PMC7819943, “Rice protein-binding microarrays: a tool to detect cis-acting elements near promoter regions in rice”.

The list shows a part of the results.

The assay deals with T1, OsWOX13 (Oryza sativa, UniProt Q5QMM3 1-267).
T1 sequence: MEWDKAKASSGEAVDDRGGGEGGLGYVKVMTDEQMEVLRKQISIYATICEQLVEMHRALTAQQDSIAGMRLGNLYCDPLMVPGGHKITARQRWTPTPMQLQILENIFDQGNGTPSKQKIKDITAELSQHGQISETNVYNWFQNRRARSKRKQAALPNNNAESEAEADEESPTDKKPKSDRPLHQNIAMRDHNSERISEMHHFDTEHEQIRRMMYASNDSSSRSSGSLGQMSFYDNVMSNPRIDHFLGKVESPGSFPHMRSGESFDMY
The experiment in a line: protein-binding microarray (RPBM); PBS, 2% BSA, 51.3 ng/ul salmon testes DNA, 50 uM zinc acetate, 200 nM TF, 25 C, 1 h; high values mean tight binding. To be noted: protein: recombinant; tags: N-terminal polyhistidine and DsRed monomer fusion (pET32a); label: CyDye5-dUTP incorporated in the synthesized complementary strand; 3' TTTTT single-stranded linker to array surface; dsDNA, one strand shown. In a few lines: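 Binding signal here means per-feature fluorescence intensity in arbitrary units. The values were read on an Axon 4000B scanner after a custom Agilent array, double-stranded by primer extension with Cy5-dUTP, was incubated with 200 nM protein at 25 °C for 1 h in PBS with 2% BSA, salmon testes DNA and 50 µM zinc acetate, then washed. The proteins were transcription factors with an N-terminal polyhistidine tag and DsRed, expressed in E. coli BL21-CodonPlus and purified on Ni–NTA.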
Consider “AATTATCATTAAAATTTCTAATCAATACTTAGCCTAAGAACGGAGTCACCTAGTGCAG”, for which the binding signal was 4120 fluorescence intensity (a.u.).
The result for “AGGACCTGATGGATGCTGATGACTTTCGCCTAGTACTATTCGGAGTCACCTAGTGCAG” reads 6940 fluorescence intensity (a.u.); that for “AACTCTCCAATCAAATCGGCCGGGATGGAGTTTGACTTCCCGGAGTCACCTAGTGCAG”, 7400 fluorescence intensity (a.u.); that for “CTGCCTAATCAACATGATGTTTCTCATAACAGGAAAGCAACGGAGTCACCTAGTGCAG”, 8100 fluorescence intensity (a.u.).
Next, “AATAATGTACTAATCTATCGCTCTATTTTACAGTATTTAGCGGAGTCACCTAGTGCAG”: 4160 fluorescence intensity (a.u.).
Take “TATTGATTGATTGGTTAGTACTACAGTACTGTAGGAGTGGCGGAGTCACCTAGTGCAG”: the binding signal was 64700 fluorescence intensity (a.u.).
Consider “AGTTATAACTGTCTTAACCGTAATCAGGACCCACTATATCCGGAGTCACCTAGTGCAG”, for which the binding signal is 5400 fluorescence intensity (a.u.).
For “AGAACCCTTAATTGACTGTAGCGGCCAATGTAGAAACACACGGAGTCACCTAGTGCAG”, the binding signal is 38400 fluorescence intensity (a.u.).
In the case of “TTCAAAATTTATCATCAACGTCAAAGATTTATTATCGAAGCGGAGTCACCTAGTGCAG”, the binding signal was 4550 fluorescence intensity (a.u.).
For the sequence “TAAATTAATAAATATACATGAATCAGCTAGCTAGCGGTAACGGAGTCACCTAGTGCAG”, the binding signal is 3300 fluorescence intensity (a.u.).
In the case of “GGCGCCATCCACTAATTGATCACTTGGTTGCTGTTCATCACGGAGTCACCTAGTGCAG”, the binding signal is 17400 fluorescence intensity (a.u.).
For the sequence “ACTTAATGATACTCTCAAATTAATTAAGTTGTGTGACAGTCGGAGTCACCTAGTGCAG”, the binding signal is 21300 fluorescence intensity (a.u.).
As to “ATCATATTAATTATTTCAAATTTACCATTTTATCATGTATCGGAGTCACCTAGTGCAG”, the binding signal is 15800 fluorescence intensity (a.u.).
The result for “CCTTACTAATTGTCACAAAAGTTTAGCAGATGTCATCCTTCGGAGTCACCTAGTGCAG” reads 14600 fluorescence intensity (a.u.); that for “CCCCAATCACTTCAATTACAGAGCACCAAACGAATTTAGCCGGAGTCACCTAGTGCAG”, 37100 fluorescence intensity (a.u.); that for “TGGTAAGCAATCAGCCAATCACCACAATACTGGACCGCGTCGGAGTCACCTAGTGCAG”, 27100 fluorescence intensity (a.u.).
On to “TTGACTGATTGCACGTCCAACCATAATTTCTTTTCGTCCACGGAGTCACCTAGTGCAG”, for which the binding signal was 58600 fluorescence intensity (a.u.).
For “ACTTAATTAATTACCACCTTATGCAAGTGTAATATATATTCGGAGTCACCTAGTGCAG”, the binding signal was 43500 fluorescence intensity (a.u.).
Take “TGCCGATTGATCTTTTATCCTTTGGGGCATATGCTCGAGTCGGAGTCACCTAGTGCAG”: the binding signal is 24400 fluorescence intensity (a.u.).
On to “ACCTTTCATTCTCAGGTTATAATTATATTATCATTTCTTTCGGAGTCACCTAGTGCAG”, for which the binding signal was 5420 fluorescence intensity (a.u.).
“CGGTTAAATTAACAGAGGCGGGAGGGCAGCAACAAGTCAACGGAGTCACCTAGTGCAG”: the binding signal was 11600 fluorescence intensity (a.u.).
For the sequence “CATCTTTTCAATTAAAGCTTTACAACCTAATATAACACACCGGAGTCACCTAGTGCAG”, the binding signal was 7840 fluorescence intensity (a.u.).
The result for “GCTGACAAACAATCACGCTCTCGGCCCAAAACTTGTATCTCGGAGTCACCTAGTGCAG” reads 26800 fluorescence intensity (a.u.).
For the sequence “TTTACTAATAACGGATTAATTAGGCTTAATAAATTCGTCTCGGAGTCACCTAGTGCAG”, the binding signal is 15800 fluorescence intensity (a.u.).
“ACTCTAACAAGAATGGAAGTGATTGAAGTGTAAAATAGATCGGAGTCACCTAGTGCAG”: the binding signal is 7790 fluorescence intensity (a.u.).
On to “AAATATAATTATGTGAGATCTTGTTATAAAGATTTAATTGCGGAGTCACCTAGTGCAG”, for which the binding signal was 27000 fluorescence intensity (a.u.).
As for “CCCTTCATTTTATTGATAATTTGTTTTAGGTATATGCTCTCGGAGTCACCTAGTGCAG”, the binding signal was 7450 fluorescence intensity (a.u.).
With “GTCCATGATTAACCATAAGTGCTATAGTAACTCACATTTGCGGAGTCACCTAGTGCAG”, the binding signal is 17800 fluorescence intensity (a.u.).
With “GTAATACGTAATCTAGATTTGAGATTATGTAGAACATTCTCGGAGTCACCTAGTGCAG”, the binding signal was 6500 fluorescence intensity (a.u.).
Take “TCCAAATCATTTATAACCAATGTAATAGTCAATTCATACACGGAGTCACCTAGTGCAG”: the binding signal was 4090 fluorescence intensity (a.u.).
Take “TAAACAAATTAGCAGGTTGGCTACAAAATGTAATTGCTAGCGGAGTCACCTAGTGCAG”: the binding signal was 14400 fluorescence intensity (a.u.).
With “TGTGATTGGGCACAAGCACAACAGCGTCACCATGGATCTTCGGAGTCACCTAGTGCAG”, the binding signal was 29300 fluorescence intensity (a.u.).
For the sequence “ATTTAATAGAACAAAGTTACAATGCCAGAGTAAACAGTGCCGGAGTCACCTAGTGCAG”, the binding signal is 5030 fluorescence intensity (a.u.).
Consider “CAAAATATATTTAATGAAATTAATTTTGTGTTTTAAGAGTCGGAGTCACCTAGTGCAG”, for which the binding signal was 14500 fluorescence intensity (a.u.).
With “AGCTAATTTTCTAGCAAATATACTTAAACATACGTCTATTCGGAGTCACCTAGTGCAG”, the binding signal is 13500 fluorescence intensity (a.u.).
The result for “GATGTGACAGGGATCTTAATTTTAGTCCCTGATCCAAACTCGGAGTCACCTAGTGCAG” reads 9690 fluorescence intensity (a.u.); that for “TATAAAACTGTAGTGATTTGTAAGCAATTCCGTTTGAACACGGAGTCACCTAGTGCAG”, 6850 fluorescence intensity (a.u.).
For “ATTTTGAAAATTGACGGAAGGAGTCGCCTACCGCCCTCTGCGGAGTCACCTAGTGCAG”, the binding signal was 9070 fluorescence intensity (a.u.).
In the case of “CATTTAATTTTCCTAGTCACCCTTATTTAAATAACTTCAACGGAGTCACCTAGTGCAG”, the binding signal is 6500 fluorescence intensity (a.u.).
For the sequence “TCTGTTGTAATTGTAATCTAATCATATTAAATCCTTAGTTCGGAGTCACCTAGTGCAG”, the binding signal was 12800 fluorescence intensity (a.u.).
Regarding “TTAAATTGTTGGATTTAGTCCTATACCGTTATAGGATGATCGGAGTCACCTAGTGCAG”, the binding signal was 13000 fluorescence intensity (a.u.).
The result for “TTAAATTTAAATTTAAATTTAATTTTGAGATTTCTTTTCACGGAGTCACCTAGTGCAG” reads 55700 fluorescence intensity (a.u.).
